Here are results for five molecules from article PMC6303346.

Protein sequences, listed by entry. Tags and fused reporters are not part of them.
UniProt Q00417: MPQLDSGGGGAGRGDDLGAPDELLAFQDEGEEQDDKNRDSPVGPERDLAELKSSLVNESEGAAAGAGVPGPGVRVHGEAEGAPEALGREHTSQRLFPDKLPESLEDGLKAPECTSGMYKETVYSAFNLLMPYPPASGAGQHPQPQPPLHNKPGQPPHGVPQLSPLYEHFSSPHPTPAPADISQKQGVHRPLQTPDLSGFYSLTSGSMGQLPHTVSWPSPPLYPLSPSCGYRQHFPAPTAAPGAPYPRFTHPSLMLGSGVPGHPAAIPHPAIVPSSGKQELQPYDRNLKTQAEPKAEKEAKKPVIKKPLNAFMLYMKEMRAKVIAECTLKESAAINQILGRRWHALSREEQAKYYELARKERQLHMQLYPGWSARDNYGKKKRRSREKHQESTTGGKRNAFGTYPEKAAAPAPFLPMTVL
UniProt Q96KQ7: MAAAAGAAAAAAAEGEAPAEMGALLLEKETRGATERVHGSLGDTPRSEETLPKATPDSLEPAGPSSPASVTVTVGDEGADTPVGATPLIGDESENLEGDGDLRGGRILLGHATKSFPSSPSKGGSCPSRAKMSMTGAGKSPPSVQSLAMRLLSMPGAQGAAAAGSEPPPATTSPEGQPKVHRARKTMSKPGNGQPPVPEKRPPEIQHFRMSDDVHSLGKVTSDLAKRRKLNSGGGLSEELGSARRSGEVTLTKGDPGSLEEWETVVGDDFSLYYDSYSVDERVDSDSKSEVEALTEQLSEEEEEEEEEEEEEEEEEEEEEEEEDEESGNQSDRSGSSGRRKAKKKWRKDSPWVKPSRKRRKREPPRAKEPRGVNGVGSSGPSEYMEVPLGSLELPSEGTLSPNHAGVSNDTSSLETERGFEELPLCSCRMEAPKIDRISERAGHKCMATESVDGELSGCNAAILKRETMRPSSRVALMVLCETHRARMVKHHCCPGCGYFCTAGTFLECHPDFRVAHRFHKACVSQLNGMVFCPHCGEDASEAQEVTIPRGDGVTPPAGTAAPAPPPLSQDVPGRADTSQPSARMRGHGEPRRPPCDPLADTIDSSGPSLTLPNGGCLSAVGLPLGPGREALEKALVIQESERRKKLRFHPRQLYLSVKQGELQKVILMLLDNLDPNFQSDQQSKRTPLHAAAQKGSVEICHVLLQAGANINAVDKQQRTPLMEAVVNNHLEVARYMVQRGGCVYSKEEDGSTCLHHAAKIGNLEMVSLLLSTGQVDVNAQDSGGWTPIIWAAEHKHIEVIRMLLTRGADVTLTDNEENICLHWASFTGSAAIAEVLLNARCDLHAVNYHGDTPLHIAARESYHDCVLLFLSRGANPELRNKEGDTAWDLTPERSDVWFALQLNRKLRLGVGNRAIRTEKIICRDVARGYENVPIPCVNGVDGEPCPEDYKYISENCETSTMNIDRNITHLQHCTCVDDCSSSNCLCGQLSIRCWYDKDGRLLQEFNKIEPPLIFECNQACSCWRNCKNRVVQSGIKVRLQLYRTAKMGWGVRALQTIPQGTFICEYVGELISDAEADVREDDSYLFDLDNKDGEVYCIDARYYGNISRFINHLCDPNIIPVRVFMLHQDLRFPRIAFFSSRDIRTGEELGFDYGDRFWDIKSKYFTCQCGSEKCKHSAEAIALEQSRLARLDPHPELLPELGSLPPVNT
UniProt Q61188: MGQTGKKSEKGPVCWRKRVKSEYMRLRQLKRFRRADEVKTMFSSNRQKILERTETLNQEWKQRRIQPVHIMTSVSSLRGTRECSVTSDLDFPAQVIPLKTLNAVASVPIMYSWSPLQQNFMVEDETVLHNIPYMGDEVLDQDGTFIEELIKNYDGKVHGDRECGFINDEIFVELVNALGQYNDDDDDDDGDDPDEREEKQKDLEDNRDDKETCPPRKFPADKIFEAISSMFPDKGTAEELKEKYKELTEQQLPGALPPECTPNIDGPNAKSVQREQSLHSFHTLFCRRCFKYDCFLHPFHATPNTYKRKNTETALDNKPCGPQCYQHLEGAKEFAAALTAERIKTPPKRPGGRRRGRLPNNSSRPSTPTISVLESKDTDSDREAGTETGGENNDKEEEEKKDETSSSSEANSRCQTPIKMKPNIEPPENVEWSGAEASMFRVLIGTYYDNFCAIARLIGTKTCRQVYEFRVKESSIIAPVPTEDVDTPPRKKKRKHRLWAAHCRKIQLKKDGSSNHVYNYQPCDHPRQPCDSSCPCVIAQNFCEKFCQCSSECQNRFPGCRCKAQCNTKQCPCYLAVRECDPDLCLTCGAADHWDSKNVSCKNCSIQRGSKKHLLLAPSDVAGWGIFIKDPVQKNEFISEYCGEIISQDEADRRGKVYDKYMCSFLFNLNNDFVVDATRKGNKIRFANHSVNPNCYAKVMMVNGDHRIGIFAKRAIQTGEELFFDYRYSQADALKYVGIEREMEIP

Results are given in words; binding and its absence hold for the method and conditions named. Binding seen in cells or lysates may run through a third protein. Some results given as binding are weak or reduced against the parent protein; the word gives no strength.

One assay has as its target FLAG-tagged Tcf1 (UniProt Q00417). In words: co-IP; 293T cells co-transfected with FLAG-Tcf1 and HA-Ezh2 or HA-G9a; lysates 48 h later incubated overnight with anti-FLAG (M2), Dynabeads Protein G; immunoblot with anti-HA.
The target of assay [1] is Tcf1 (endogenous, primary TFH cells) (mouse (endogenous in primary TFH cells)) (UniProt Q00417). As to the kind of experiment: co-IP; endogenous proteins; lysate of sorted CXCR5+SLAMlo TFH cells from LCMV-infected mice; anti-Tcf1 (C63D9) or normal rabbit IgG, 5 h at 4 °C, Dynabeads Protein G; immunoblot with anti-Ezh2. On the technique in general: Immunoblotting shows a protein as a band on a membrane.

The target of a further assay is WT Bcl6 (UniProt P41183). As to the kind of experiment: co-IP; 293T cells co-transfected with Bcl6-mCherry and Arf-GFP (WT or mutant forms); lysates immunoprecipitated with anti-Bcl6 (D65C10), immunoblot with anti-p19Arf (5-C3-1).

As for “HA-tagged G9a (from UniProt Q96KQ7 1-1210) (enzyme)”, the binding result with FLAG-tagged Tcf1 is recorded as “no binding”.

“Ezh2 (endogenous, primary TFH cells) (from UniProt Q61188 1-746) (enzyme)”: in assay [1], the binding entry was “binds”.

B1: ArfΔ37 (domain or fragment, UniProt Q64364 38-169)
chain: CALAFVNMLLRLERILRRGPHRNPGPGDDDGQRSRSSSSAQLRCRFELRGPHYLLPPGARRSAGRLPGHAGGAARVRGSAGCARCLGSPAARLGPRAGTSRHRAIFAFRWVLFVFRWVVFVYRWERRPDRRA
As for B1, the binding entry in the assay with WT Bcl6 is “binds weakly”.

B2: ArfΔ14 (domain or fragment, UniProt Q64364 15-169)
chain: GRPLQERVFLVKFVRSRRPRTASCALAFVNMLLRLERILRRGPHRNPGPGDDDGQRSRSSSSAQLRCRFELRGPHYLLPPGARRSAGRLPGHAGGAARVRGSAGCARCLGSPAARLGPRAGTSRHRAIFAFRWVLFVFRWVVFVYRWERRPDRRA
For the molecule B2, the binding entry in the assay with WT Bcl6 is “binds”.

B3: WT p19Arf (protein, UniProt Q64364 1-169)
chain: MGRRFLVTVRIQRAGRPLQERVFLVKFVRSRRPRTASCALAFVNMLLRLERILRRGPHRNPGPGDDDGQRSRSSSSAQLRCRFELRGPHYLLPPGARRSAGRLPGHAGGAARVRGSAGCARCLGSPAARLGPRAGTSRHRAIFAFRWVLFVFRWVVFVYRWERRPDRRA
In the case of B3, in the assay with WT Bcl6, the binding entry is recorded as “binds”.
